# In PMC12820563:
# The other results are listed elsewhere or left out. The list includes weakly bound sequences.
# Target: T1, MBP-FoxP3dN (UniProt Q99JB6)
# T1 sequence: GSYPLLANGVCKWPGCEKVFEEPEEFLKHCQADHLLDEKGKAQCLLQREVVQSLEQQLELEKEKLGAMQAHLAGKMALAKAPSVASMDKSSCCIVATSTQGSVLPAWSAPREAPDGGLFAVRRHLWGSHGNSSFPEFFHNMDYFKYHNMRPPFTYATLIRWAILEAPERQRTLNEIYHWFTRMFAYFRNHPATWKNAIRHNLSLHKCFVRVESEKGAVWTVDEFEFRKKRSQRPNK
# Experiment: PD-seq (MBP pull-down with sequencing)
# Conditions: 20 mM Tris-HCl pH 7.5, 100 mM NaCl, 1.5 mM MgCl2, 0.4 uM protein, 0.1 uM dsDNA library, 30 min, room temperature, amylose pull-down; high values mean tight binding; double strand, one strand shown
row,Sequence,binding signal (RPM ratio (pull-down/input))
1,GATGATTGTTCTCCCAGCTGATGAATTGAAGTGATCGAGTAAACAAATTTTCCTAATCTTTCTGTTCAAGCGCCATCTAC,0.434
2,GATGATTGTTCTCCCAGCTGATGAATTGGCAATATCGAGTAAACAAATTTTCCTAATCTTTCTGTTCAAGCGCCATCTAC,1.15
3,GATGATTGTTCTCCCAGCTGATGAATTTTCCGTGTCGAGTAAACAAATTTTCCTAATCTTTCTGTTCAAGCGCCATCTAC,0.303
4,GATGATTGTTCTCCCAGCTGATGAATTTGCAGCGTCGAGTAAACAAATTTTCCTAATCTTTCTGTTCAAGCGCCATCTAC,1.04
5,GATGATTGTTCTCCCAGCTGATGAATTGCGTGCTTCGAGTAAACAAATTTTCCTAATCTTTCTGTTCAAGCGCCATCTAC,1.56
6,GATGATTGTTCTCCCAGCTGATGAATTATCGCTATCGAGTAAACAAATTTTCCTAATCTTTCTGTTCAAGCGCCATCTAC,0.715
7,GATGATTGTTCTCCCAGCTGATGAATTCCGCGGCTCGAGTAAACAAATTTTCCTAATCTTTCTGTTCAAGCGCCATCTAC,0.689
8,GATGATTGTTCTCCCAGCTGATGAATTTGATCGATCGAGTAAACAAATTTTCCTAATCTTTCTGTTCAAGCGCCATCTAC,0.247
9,GATGATTGTTCTCCCAGCTGATGAATTACTTTAATCGAGTAAACAAATTTTCCTAATCTTTCTGTTCAAGCGCCATCTAC,0.273
10,GATGATTGTTCTCCCAGCTGATGAATTCATGGCGTCGAGTAAACAAATTTTCCTAATCTTTCTGTTCAAGCGCCATCTAC,0.668
11,GATGATTGTTCTCCCAGCTGATGAATTATGCGTTTCGAGTAAACAAATTTTCCTAATCTTTCTGTTCAAGCGCCATCTAC,4.66
12,GATGATTGTTCTCCCAGCTGATGAATTCGCTCCCTCGAGTAAACAAATTTTCCTAATCTTTCTGTTCAAGCGCCATCTAC,0.309
13,GATGATTGTTCTCCCAGCTGATGAATTCACATGGTCGAGTAAACAAATTTTCCTAATCTTTCTGTTCAAGCGCCATCTAC,0.35
14,GATGATTGTTCTCCCAGCTGATGAATTGTATCTTTCGAGTAAACAAATTTTCCTAATCTTTCTGTTCAAGCGCCATCTAC,1.68
15,GATGATTGTTCTCCCAGCTGATGAATTCTAAAATTCGAGTAAACAAATTTTCCTAATCTTTCTGTTCAAGCGCCATCTAC,0.271
16,GATGATTGTTCTCCCAGCTGATGAATTCACGTGTTCGAGTAAACAAATTTTCCTAATCTTTCTGTTCAAGCGCCATCTAC,0.58
17,GATGATTGTTCTCCCAGCTGATGAATTGCTAAGTTCGAGTAAACAAATTTTCCTAATCTTTCTGTTCAAGCGCCATCTAC,0.518
18,GATGATTGTTCTCCCAGCTGATGAATTTCGGCCTTCGAGTAAACAAATTTTCCTAATCTTTCTGTTCAAGCGCCATCTAC,1.74
19,GATGATTGTTCTCCCAGCTGATGAATTCGTCCTTTCGAGTAAACAAATTTTCCTAATCTTTCTGTTCAAGCGCCATCTAC,0.547
20,GATGATTGTTCTCCCAGCTGATGAATTAAAGCAATCGAGTAAACAAATTTTCCTAATCTTTCTGTTCAAGCGCCATCTAC,2.51
21,GATGATTGTTCTCCCAGCTGATGAATTCAAGTCTTCGAGTAAACAAATTTTCCTAATCTTTCTGTTCAAGCGCCATCTAC,0.346

row,Sequence,binding signal (RPM ratio (pull-down/input))
1,GATGATTGTTCTCCCAGCTGATGAATTCAAGAACTCGAGTAAACAAATTTTCCTAATCTTTCTGTTCAAGCGCCATCTAC,0.199
2,GATGATTGTTCTCCCAGCTGATGAATTCGGCGGTTCGAGTAAACAAATTTTCCTAATCTTTCTGTTCAAGCGCCATCTAC,0.542
3,GATGATTGTTCTCCCAGCTGATGAATTGCATCAGTCGAGTAAACAAATTTTCCTAATCTTTCTGTTCAAGCGCCATCTAC,2.35
4,GATGATTGTTCTCCCAGCTGATGAATTTTATGGGTCGAGTAAACAAATTTTCCTAATCTTTCTGTTCAAGCGCCATCTAC,0.539
5,GATGATTGTTCTCCCAGCTGATGAATTGTGGTTTTCGAGTAAACAAATTTTCCTAATCTTTCTGTTCAAGCGCCATCTAC,2.03
6,GATGATTGTTCTCCCAGCTGATGAATTCAAGTGCTCGAGTAAACAAATTTTCCTAATCTTTCTGTTCAAGCGCCATCTAC,0.454
7,GATGATTGTTCTCCCAGCTGATGAATTGCGGCTATCGAGTAAACAAATTTTCCTAATCTTTCTGTTCAAGCGCCATCTAC,1.2
8,GATGATTGTTCTCCCAGCTGATGAATTGGGACTGTCGAGTAAACAAATTTTCCTAATCTTTCTGTTCAAGCGCCATCTAC,0.673
9,GATGATTGTTCTCCCAGCTGATGAATTCCGCGGGTCGAGTAAACAAATTTTCCTAATCTTTCTGTTCAAGCGCCATCTAC,0.668
10,GATGATTGTTCTCCCAGCTGATGAATTAATTTCCTCGAGTAAACAAATTTTCCTAATCTTTCTGTTCAAGCGCCATCTAC,0.876
11,GATGATTGTTCTCCCAGCTGATGAATTATACTGTTCGAGTAAACAAATTTTCCTAATCTTTCTGTTCAAGCGCCATCTAC,0.749
12,GATGATTGTTCTCCCAGCTGATGAATTAGGCTCTTCGAGTAAACAAATTTTCCTAATCTTTCTGTTCAAGCGCCATCTAC,0.62
13,GATGATTGTTCTCCCAGCTGATGAATTATTTCTTTCGAGTAAACAAATTTTCCTAATCTTTCTGTTCAAGCGCCATCTAC,0.419
14,GATGATTGTTCTCCCAGCTGATGAATTCTACGCTTCGAGTAAACAAATTTTCCTAATCTTTCTGTTCAAGCGCCATCTAC,0.404
15,GATGATTGTTCTCCCAGCTGATGAATTTGGCTGGTCGAGTAAACAAATTTTCCTAATCTTTCTGTTCAAGCGCCATCTAC,0.672
16,GATGATTGTTCTCCCAGCTGATGAATTCTCAGTGTCGAGTAAACAAATTTTCCTAATCTTTCTGTTCAAGCGCCATCTAC,0.363
17,GATGATTGTTCTCCCAGCTGATGAATTGCGCGCCTCGAGTAAACAAATTTTCCTAATCTTTCTGTTCAAGCGCCATCTAC,2.33
18,GATGATTGTTCTCCCAGCTGATGAATTCTTTGTATCGAGTAAACAAATTTTCCTAATCTTTCTGTTCAAGCGCCATCTAC,0.57
19,GATGATTGTTCTCCCAGCTGATGAATTGTCTCCATCGAGTAAACAAATTTTCCTAATCTTTCTGTTCAAGCGCCATCTAC,0.441
20,GATGATTGTTCTCCCAGCTGATGAATTTGGTGGATCGAGTAAACAAATTTTCCTAATCTTTCTGTTCAAGCGCCATCTAC,0.677
21,GATGATTGTTCTCCCAGCTGATGAATTAATTCTGTCGAGTAAACAAATTTTCCTAATCTTTCTGTTCAAGCGCCATCTAC,0.249

row,Sequence,binding signal (RPM ratio (pull-down/input))
1,GATGATTGTTCTCCCAGCTGATGAATTAAGACATTCGAGTAAACAAATTTTCCTAATCTTTCTGTTCAAGCGCCATCTAC,0.913
2,GATGATTGTTCTCCCAGCTGATGAATTTTGCCCATCGAGTAAACAAATTTTCCTAATCTTTCTGTTCAAGCGCCATCTAC,1.68
3,GATGATTGTTCTCCCAGCTGATGAATTGCCTTCATCGAGTAAACAAATTTTCCTAATCTTTCTGTTCAAGCGCCATCTAC,1.05
4,GATGATTGTTCTCCCAGCTGATGAATTCGCAATCTCGAGTAAACAAATTTTCCTAATCTTTCTGTTCAAGCGCCATCTAC,1.71
5,GATGATTGTTCTCCCAGCTGATGAATTTCCCTCATCGAGTAAACAAATTTTCCTAATCTTTCTGTTCAAGCGCCATCTAC,0.354
6,GATGATTGTTCTCCCAGCTGATGAATTGAGACTGTCGAGTAAACAAATTTTCCTAATCTTTCTGTTCAAGCGCCATCTAC,0.721
7,GATGATTGTTCTCCCAGCTGATGAATTCGAGCTTTCGAGTAAACAAATTTTCCTAATCTTTCTGTTCAAGCGCCATCTAC,0.783
8,GATGATTGTTCTCCCAGCTGATGAATTTATGGAATCGAGTAAACAAATTTTCCTAATCTTTCTGTTCAAGCGCCATCTAC,0.376
9,GATGATTGTTCTCCCAGCTGATGAATTCCAGCCCTCGAGTAAACAAATTTTCCTAATCTTTCTGTTCAAGCGCCATCTAC,0.367
10,GATGATTGTTCTCCCAGCTGATGAATTCGAAATGTCGAGTAAACAAATTTTCCTAATCTTTCTGTTCAAGCGCCATCTAC,0.334
11,GATGATTGTTCTCCCAGCTGATGAATTAACATCTTCGAGTAAACAAATTTTCCTAATCTTTCTGTTCAAGCGCCATCTAC,0.526
12,GATGATTGTTCTCCCAGCTGATGAATTACCCACGTCGAGTAAACAAATTTTCCTAATCTTTCTGTTCAAGCGCCATCTAC,0.301
13,GATGATTGTTCTCCCAGCTGATGAATTAGCGGCCTCGAGTAAACAAATTTTCCTAATCTTTCTGTTCAAGCGCCATCTAC,0.488
14,GATGATTGTTCTCCCAGCTGATGAATTCTGAGTGTCGAGTAAACAAATTTTCCTAATCTTTCTGTTCAAGCGCCATCTAC,1.59
15,GATGATTGTTCTCCCAGCTGATGAATTCGTTAGCTCGAGTAAACAAATTTTCCTAATCTTTCTGTTCAAGCGCCATCTAC,1.35
16,GATGATTGTTCTCCCAGCTGATGAATTAGTTCCGTCGAGTAAACAAATTTTCCTAATCTTTCTGTTCAAGCGCCATCTAC,0.36
17,GATGATTGTTCTCCCAGCTGATGAATTAATCGGGTCGAGTAAACAAATTTTCCTAATCTTTCTGTTCAAGCGCCATCTAC,0.275
18,GATGATTGTTCTCCCAGCTGATGAATTCAATCGGTCGAGTAAACAAATTTTCCTAATCTTTCTGTTCAAGCGCCATCTAC,0.287
19,GATGATTGTTCTCCCAGCTGATGAATTAGGATAATCGAGTAAACAAATTTTCCTAATCTTTCTGTTCAAGCGCCATCTAC,0.341
20,GATGATTGTTCTCCCAGCTGATGAATTTCGTTATTCGAGTAAACAAATTTTCCTAATCTTTCTGTTCAAGCGCCATCTAC,2.7
21,GATGATTGTTCTCCCAGCTGATGAATTAACGCTATCGAGTAAACAAATTTTCCTAATCTTTCTGTTCAAGCGCCATCTAC,0.812
